PubChem BioAssay AID463254 (National Center for Advancing Translational Sciences (NCATS), 2010)
About 40 (0.01%) of roughly 330,000 compounds were called active. Inconclusive means that the source gave no clear call. Such entries were picked first, then a sample of the others. The call rests on the fitted dose curve; in most records, active means well fitted inhibition curve with a large enough effect; inconclusive means small, poorly fitted or top-dose-only effect, or effect the other way; inactive means flat fitted curve, though single readings scatter. Where the call is inconclusive, the potency comes from a doubtful curve fit.

Biological target: Ubiquitin carboxyl-terminal hydrolase 2 (Homo sapiens) (UniProt O75604)
Assay: qHTS Assay for Inhibitors of Ubiquitin-specific Protease USP2a Using CHOP2 as the Reporter;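 on activity change, negative = inhibition: plate controls were DMSO wells for no effect and full inhibition by NEM control for full effect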
Settings: USP2 core, Ub-CHOP2 coupled fluorogenic reporter, 485/531; activity change, negative = inhibition: at 38.3 µM (top of the series)
In short: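 USP2 core (10nM final) preincubated 30min RT with compound in 20mM Tris-HCl pH 8.0, 2mM CaCl2, 2mM beta-mercaptoethanol, 0.05% CHAPS; 25nM Ub-CHOP2 plus 25nM reporter substrate added, fluorescence (Ex485/Em531) read after 60min.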
Potency means the concentration at half of the fitted maximal effect; tags describe the fitted curve by direction and shape or compound fluorescence and quenching.

UniProt O75604, sequence (O75604 whole entry, looked up): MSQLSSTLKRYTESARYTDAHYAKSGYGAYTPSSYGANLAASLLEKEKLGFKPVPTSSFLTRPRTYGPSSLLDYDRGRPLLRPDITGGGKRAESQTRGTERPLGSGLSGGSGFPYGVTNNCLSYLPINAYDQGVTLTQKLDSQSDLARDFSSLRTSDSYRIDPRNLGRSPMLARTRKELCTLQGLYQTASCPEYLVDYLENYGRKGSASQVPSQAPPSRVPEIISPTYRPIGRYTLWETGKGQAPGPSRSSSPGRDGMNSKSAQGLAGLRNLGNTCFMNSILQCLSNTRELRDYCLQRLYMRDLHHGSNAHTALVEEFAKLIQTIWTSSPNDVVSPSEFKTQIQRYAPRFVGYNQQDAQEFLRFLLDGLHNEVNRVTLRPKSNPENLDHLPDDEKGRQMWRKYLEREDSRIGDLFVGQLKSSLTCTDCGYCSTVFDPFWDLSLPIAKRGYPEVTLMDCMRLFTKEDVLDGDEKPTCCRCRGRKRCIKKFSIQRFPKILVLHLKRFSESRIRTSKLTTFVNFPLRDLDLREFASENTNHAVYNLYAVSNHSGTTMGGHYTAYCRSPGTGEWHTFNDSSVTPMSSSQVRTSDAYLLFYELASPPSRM

Potency, inconclusive:
Cn1c(C(=O)N2CCN(C3CCCCC3)CC2)cc2c(=O)n(C)c3ccccc3c21 28.2 µM [falling, single point]
Cc1n[nH]c(C)c1N1C(=O)c2cccc3c(N4CCCCCC4)ccc(c23)C1=O 10 µM [fluorescent, partial curve]
NS(=O)(=O)c1ccc(CCNC(=O)CCCn2ncn3c(cc4occc43)c2=O)cc1 25.1 µM [fluorescent, single point]
O=c1cc2oc3cc(O)c(O)cc3c(-c3ccccc3[N+](=O)[O-])c-2cc1O 28.2 µM [falling, single point]
Cc1ccn2c(Nc3ccc4c(c3)OCO4)c(-c3ccccn3)nc2c1 28.2 µM [fluorescent, single point]
O=C(/C(=N/N=C/c1ccc(O)c(O)c1O)c1ccccc1)c1ccccc1 20 µM [falling, single point]
O=C(CC(C(=O)O)C1CCCO1)NCCc1ccc2c(c1)OCO2 (stereo unspecified) 3.16 µM [falling, single point]
CC1CCCN(Cc2c(O)ccc3c2O/C(=C\c2ccco2)C3=O)C1 (stereo unspecified) 12.6 µM [fluorescent, single point]
Cc1cc(N=Nc2ccc(C)c(N=Nc3cc(C)c(N)cc3N)c2)c(N)cc1N 28.2 µM [falling, single point]
CC(C(=O)Nc1ccc(C(=O)O)c(O)c1)N1C(=O)/C(=C\c2ccco2)SC1=S (stereo unspecified) 28.2 µM [falling, single point]
COC(=O)C1CCN(C(=O)c2cc(-c3ccco3)nc3ccccc23)CC1 20 µM [falling, single point]
Cc1ccc(C(=O)c2coc3c2C(=O)C(=O)c2ccccc2-3)cc1 28.2 µM [falling, single point]
O=C(Cc1cccs1)Nc1ccc(S(=O)(=O)N2CCCCC2)cc1 28.2 µM [falling, single point]
COC1=CCC2([N+](=O)[O-])CN(CCO)CC1([N+](=O)[O-])C2 (stereo unspecified) 4.47 µM [falling, single point]
COc1ccc(-c2[nH]ncc2/C=C(/C#N)C(=O)NC2CCCCC2)cc1 28.2 µM [falling, single point]
CCNc1ccc2noc3c2c1C(=O)c1ccccc1-3 10 µM [fluorescent, partial curve]
Oc1ccccc1/C=N/Nc1ncc(Br)cn1 28.2 µM [falling, single point]
CC12CN3CC(C)(CN(C1)C3c1ccc(Cl)cc1Cl)C2O (stereo unspecified) 28.2 µM [falling, single point]
O=[n+]1c2c(n([O-])c3cc(F)c(N4CCCC4)cc31)CCCC2 11.2 µM [fluorescent, single point]
S=c1[nH]nc(-c2cc(-c3ccccc3)n[nH]2)n1/N=C/c1ccc(Br)s1 28.2 µM [falling, single point]
O=C(CCN1C(=O)/C(=C/c2cccs2)SC1=S)NNC(=O)c1cccc(O)c1 15.8 µM [fluorescent, single point]
O=C(NN=Cc1ccc(N2CCOCC2)s1)c1ccc([N+](=O)[O-])cc1 5.01 µM [falling, single point]
O=C1CCCc2nc(N3CCN(c4ccccc4)CC3)ncc21 3.98 µM [falling, single point]
CC(C)(C)OC(=O)C[C@H]1C/C=C\C[C@H](CC(=O)N(CCO)Cc2ccccc2)C(=O)NC[C@H](c2ccccc2)OC1=O 28.2 µM [falling, single point]
CN(c1cccc(NC(=O)Nc2cccc(Cl)c2)c1)S(C)(=O)=O 28.2 µM [falling, single point]
CCCNC(=O)c1c(CSc2ccccc2)noc1C(=O)NCc1ccccc1 4.47 µM [fluorescent, full curve]
C#CCOCCOCCOCCNc1nc(N2CCN(C(=O)CCCCCCCCCCNC(=O)[C@@H](CCSC)n3cc(CCO)nn3)CC2)nc(N2CCN(C(=O)CCCCCCCCCCNC(=O)[C@H](CCCN=C(N)N)n3cc(C[C@@H](C)CC)nn3)CC2)n1 28.2 µM [falling, single point]
CC(=O)N/N=C/c1cc(C(C)(C)C)cc(/C=N/NC(C)=O)c1O 11.2 µM [fluorescent, single point]
O=c1[nH]ncc2c3ccccc3n(Cc3cccc(Cl)c3)c12 10 µM [fluorescent, partial curve]
COc1ccc(CCN2CC(C#N)=C3c4cc(OC)c(OC)cc4CCN3C2)cc1OC 28.2 µM [falling, single point]
CCOC(=O)c1c(/N=C/C2=C(O)CC(C)(C)CC2=O)sc(C)c1C 28.2 µM [fluorescent, single point]
Cc1ccc(-c2ccc(CCC(=O)O)n2NC(=O)c2cccs2)cc1 12.6 µM [falling, single point]
Cc1ccc(N=Nc2c(O)[nH]c3ccc(F)cc23)cc1 10 µM [fluorescent, partial curve]
Cc1ccc(-c2noc(CCCC(=O)Nc3cccnc3)n2)cc1 22.4 µM [fluorescent, single point]
O=C(O[C@@H]1OC2COC(=O)c3cc(O)c(O)c(O)c3-c3c(cc(O)c(O)c3O)C(=O)O[C@@H]([C@H]1O)[C@@H]2O)c1cc(O)c(O)c(O)c1 20 µM [falling, single point]
COc1cccc(C(=O)NC(C)c2ccc(-c3ccccc3)cc2)c1OC (stereo unspecified) 20 µM [falling, single point]
COc1ccc(/C=C\C(=O)O[C@@H]2C(O)C(O[C@@H]3OC(C)[C@H](O[C@@H]4OCC(O[C@H]5O[C@H](CO)[C@@H](O)C(O)C5O)C(O)C4O)C(O)C3O)[C@H](OC(=O)[C@]34CCC(C)(C)C[C@@H]3C3=CCC5[C@@]6(C)CC(O)C(O[C@@H]7OC(CO)C(O)[C@H](O)[C@H]7O)[C@@](C)(C(=O)O)C6CC[C@@]5(C)[C@]3(CO)CC4)O[C@H]2C)cc1 (stereo partly specified) 10 µM [falling, partial curve]
CCOC(=O)CC1C(=O)NCCN1c1nc2ccc(C)cn2c(=O)c1/C=C1\SC(=S)N(C(C)CC)C1=O (stereo unspecified) 2.51 µM [fluorescent, single point]
COC/C=C/C1=CC2=CC(=O)C(C)(OC(=O)c3cnc4ccccc4n3)C(=O)C2=CN1c1ccc(CO)cc1 (stereo unspecified) 28.2 µM [falling, single point]
CCOC(=O)Cn1c(=O)oc2cc(S(=O)(=O)Nc3cc(Cl)ccc3OC)ccc21 14.1 µM [falling, single point]
N#C/C(=C/c1ccc(N2CCOCC2)o1)C(=O)NC1CCCCC1 11.2 µM [fluorescent, single point]
Nc1c(C(=O)NCC2CCCO2)sc2nc3c(c(-c4ccco4)c12)CC/C3=C\c1ccco1 (stereo unspecified) 22.4 µM [falling, single point]
Cc1onc(-c2ccccc2)c1C(=O)N1CCN(C)CC1 4.47 µM [falling, single point]

Activity change, negative = inhibition, inactive:
CN(Cc1ccccc1)C(=C(Cl)Cl)C(=C1NCCN1)[N+](=O)[O-] 3.57%
O=C(COC(=O)[C@@H]1CCCN1C(=O)c1cccs1)Nc1ccc(Br)cc1 2.91%
Cc1cccc(C)c1NC(=O)CCS(=O)(=O)c1cccc2nonc12 6.23%
COc1ccc(C(=O)NNC(=S)NC(=O)c2cccs2)cc1 3.59%
O=C(CNC1=NCCC1)c1ccc(Cl)cc1 0.846%
COc1ccc(C(CCN2CCN(c3ccccc3)CC2)c2c(OC)cc(OC)c3c(-c4ccccc4)cc(=O)oc23)cc1 (stereo unspecified) 2.8%
CC(=O)Nc1ccc2nc3ccccc3nc2c1 3.58%
Cc1nc2c3ccccc3nc(NNC(=O)CCC(=O)N3CCCC(C)C3)n2n1 (stereo unspecified) -0.761%
COC(=O)CCC(=O)N1CCc2cc(S(=O)(=O)N3CCc4ccccc43)ccc21 -0.233%
O=[N+]([O-])c1ccc2c(c1)OCCOCCOCCOCCOCCOCCO2 -1.91%
COc1ccc(C)cc1-n1nnnc1SCC(=O)Nc1cc(C)on1 -1.17%
Cc1ccc(-c2cc(C(=O)N3CCCC3)c3ccccc3n2)s1 -0.48%
O=C(NCCc1ccccc1)c1noc2c1CCc1ccccc1-2 2.58%
COc1n[nH]c(C(=O)Nc2nc3ccccc3s2)c1[N+](=O)[O-] 2.84%
COC(=O)Cn1c(=NC(=O)c2ccc(OC)c(OC)c2)sc2cc(OC)ccc21 2.01%
CC1Cc2cc(/C=C3/SC(N4CCC(C(N)=O)CC4)=NC3=O)ccc2O1 (stereo unspecified) 1.43%
COc1cccc(-c2csc(N3CCN(C(=S)Nc4ccccc4)CC3)n2)c1 -0.582%
O=C(Nc1ccccc1)NC1CS(=O)(=O)CC1O (stereo unspecified) 0.423%
Cc1ccc(C)c(OCC(=O)Nc2c(C)n(C)n(-c3ccccc3)c2=O)c1 2.78%
Cc1noc2ncnc(Sc3ccc(Br)cc3)c12 1.13%
CCCOc1ccc2nc(C)c(CCC)c(SC(=N)N)c2c1 9.19%
Cc1ccccc1NC(=O)CSc1nc(N2CCCCC2)nc(N2CCCCC2)n1 1.17%
CCN(CC)C1CC(=O)N(c2cccc(C)c2)C1=O (stereo unspecified) -0.1%
